Results reported in the supplement of paper PMC8728848.
Some of the results follow.

Key:
Assay in all cases: glycan array binding signal (z-score within array); higher = stronger binding
Conditions in all cases: glycan notation: IUPAC condensed, linker removed
[1] = biological target: Fuc(a1-2)Gal
Method in brief: (§1)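 The binding signal is a Z-score computed within each array. Data were drawn from 3228 arrays in the Consortium for Functional Glycomics database, restricted to those with a known protein sequence. Scores were averaged over arrays of the same protein sequence at different concentrations or buffers, and over linkers, and negative values can be taken as non-binding.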

[2] = biological target: Fuc(a1-2)Gal(b1-3)GalNAc
Method in brief: as §1

[3] = biological target: Fuc(a1-2)Gal(b1-3)GalNAc(b1-3)Gal
Method in brief: as §1

[4] = biological target: Fuc(a1-2)Gal(b1-3)GalNAc(b1-3)Gal(a1-4)Gal(b1-4)Glc
Method in brief: as §1

[5] = biological target: Fuc(a1-2)Gal(b1-3)GalNAc(b1-4)[Neu5Ac(a2-3)]Gal(b1-4)Glc
Method in brief: as §1

[6] = biological target: Fuc(a1-2)Gal(b1-3)GlcNAc
Method in brief: as §1

[7] = biological target: Fuc(a1-2)Gal(b1-3)[Fuc(a1-4)]GlcNAc
Method in brief: as §1

[8] = biological target: Fuc(a1-2)Gal(b1-4)Glc
Method in brief: as §1

[9] = biological target: Fuc(a1-2)Gal(b1-4)GlcNAc
Method in brief: as §1

[10] = biological target: Fuc(a1-2)Gal(b1-4)GlcNAc(b1-3)Gal(b1-4)GlcNAc
Method in brief: as §1

[11] = biological target: Fuc(a1-2)Gal(b1-4)GlcNAc(b1-3)Gal(b1-4)GlcNAc(b1-3)Gal(b1-4)GlcNAc
Method in brief: as §1

[12] = biological target: Fuc(a1-2)Gal(b1-4)[Fuc(a1-3)]GlcNAc
Method in brief: as §1

[13] = biological target: Fuc(a1-2)GlcNAc
Method in brief: as §1

[14] = biological target: Fuc(a1-2)[Gal(a1-3)]Gal
Method in brief: as §1

[15] = biological target: Fuc(a1-2)[Gal(a1-3)]Gal(b1-4)GlcNAc
Method in brief: as §1

[16] = biological target: Fuc(a1-2)[Gal(a1-4)]Gal(b1-4)GlcNAc
Method in brief: as §1

[17] = biological target: Fuc(a1-2)[GalNAc(a1-3)]Gal
Method in brief: as §1

[18] = biological target: Fuc(a1-2)[GalNAc(a1-3)]Gal(b1-4)GlcNAc
Method in brief: as §1

[19] = biological target: Fuc(a1-2)[GalNAc(a1-4)]Gal(b1-4)GlcNAc
Method in brief: as §1

[20] = biological target: Fuc(a1-2)[GalNAc(b1-3)]Gal
Method in brief: as §1

[21] = biological target: Fuc(a1-3)GlcNAc
Method in brief: as §1

[22] = biological target: Fuc(a1-3)[Gal(b1-4)]GlcNAc
Method in brief: as §1

[23] = biological target: Fuc(a1-3)[Gal(b1-4)]GlcNAc(b1-3)Gal(b1-4)[Fuc(a1-3)]GlcNAc
Method in brief: as §1

[24] = biological target: Fuc(a1-3)[Gal(b1-4)]GlcNAc(b1-3)Gal(b1-4)[Fuc(a1-3)]GlcNAc(b1-3)Gal(b1-4)[Fuc(a1-3)]GlcNAc
Method in brief: as §1

[25] = biological target: Fuc(a1-3)[Gal3S(b1-4)]GlcNAc
Method in brief: as §1

[26] = biological target: Fuc(b1-3)GlcNAc
Method in brief: as §1

[27] = biological target: Gal(a1-2)Gal
Method in brief: as §1

[28] = biological target: Gal(a1-3)Gal
Method in brief: as §1

[29] = biological target: Gal(a1-3)Gal(b1-4)Glc
Method in brief: as §1

[30] = biological target: Gal(a1-3)Gal(b1-4)GlcNAc
Method in brief: as §1

B1: Siglec-G (Mus musculus), Q80ZE3 (protein)
chain: MSLLLFLLSFLLDGPQGQMESYFLQVQRIVKAQEGLCIFVPCSFSSPEGKWLNRSPLYGYWFKGIRKPSLSFPVATNNKDKVLEWEARGRFQLLGDISKKNCSLLIKDVQWGDSTNYFFRMERGFERFSFKEEFRLQVEALTQKPDIFIPEVLEPGEPVTVVCLFSWTFNQCPAPSFSWMGDAVSFQESRPHTSNYSVLSFIPGLQHHDTELTCQLDFSRMSTQRTVRLRVAYAPRSLAISIFHDNVSVPDLHENPSHLEVQQGQSLRLLCTADSQPPATLSWVLEDQVLSWSSPVGSRTLALELPWVKAGDSGHYTCQAENRLGSQQHTLDLSVLYPPQDLRVTVSQANRTVLEILRNAISLPVLEGQSLCLVCVTYSNPPANVSWAWVTQTLIPIQSSEPGVLELPLVQREHEGEFTCAAQNPLGAQRISLSLSVHYPPQMSSPSCSWEAKGLHCNCSSRAWPAPSLRWRLGEGLLEGNSSNASFTVTFSSLGPWVNSSLSLLQELGPSLWLSCESWNTHGAQTTSVLLLPDKDSATAFSKGAVLGFGITALLALCLIVVIVKTLQKKGTQEEPSRPKLSRGSTILDYINVVPKTRSLARNWKAEPDAPSRSSPLDTHFPKPKKKQKDPHFTYPGCPDPTSSSQVPVSENNPEELHYAALNFSRLRLQETQDPQDTYSDYTEVRVH
- glycan array binding signal (z-score) [1]: -0.192
- glycan array binding signal (z-score) [2]: 0.168
- glycan array binding signal (z-score) [3]: -0.186
- glycan array binding signal (z-score) [4]: -0.319
- glycan array binding signal (z-score) [5]: -0.186
- glycan array binding signal (z-score) [6]: -0.168
- glycan array binding signal (z-score) [7]: 0.172
- glycan array binding signal (z-score) [8]: -0.235
- glycan array binding signal (z-score) [9]: -0.18
- glycan array binding signal (z-score) [10]: -0.175
- glycan array binding signal (z-score) [11]: -0.107
- glycan array binding signal (z-score) [12]: -0.275
- glycan array binding signal (z-score) [13]: -0.233
- glycan array binding signal (z-score) [14]: -0.342
- glycan array binding signal (z-score) [15]: -0.058
- glycan array binding signal (z-score) [16]: -0.134
- glycan array binding signal (z-score) [17]: -0.182
- glycan array binding signal (z-score) [18]: -0.301
- glycan array binding signal (z-score) [19]: 0.105
- glycan array binding signal (z-score) [20]: -0.29
- glycan array binding signal (z-score) [21]: -0.221
- glycan array binding signal (z-score) [22]: -0.235
- glycan array binding signal (z-score) [23]: -0.016
- glycan array binding signal (z-score) [24]: -0.238
- glycan array binding signal (z-score) [25]: -0.178
- glycan array binding signal (z-score) [26]: 1.54
- glycan array binding signal (z-score) [27]: -0.225
- glycan array binding signal (z-score) [28]: -0.304
- glycan array binding signal (z-score) [29]: -0.137
- glycan array binding signal (z-score) [30]: -0.064
